± gives the standard deviation of the averaged measurements. This is one part of the list.
Tested on: PfAP2-I AP2 domain 3 (GST-tagged)
Assay: gcPBM binding intensity (ln(normalized median fluorescence intensity)); higher = stronger DNA binding
Method in brief: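 Binding intensity values are the highest Masliner-normalised natural-log median intensity among replicate spots of either probe orientation. The binding step lasted 1 h in 1× PBS with 1% milk, 0.2 mg/ml BSA, 0.5% salmon testes DNA and 0.03% Triton X-100, using GST-tagged P. falciparum DNA-binding domains expressed in E. coli on an Agilent 4 × 180k array of primer-extended double-stranded 36-bp intergenic genomic probes plus negative controls. Alexa488 anti-GST antibody and a 488 nm scan detected bound protein.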

Row | Sequence | gcPBM binding intensity (ln)
1 | GAATGTATAAAATGAACACACGCCAAATTAAATGAA [CACACA_site3044] | 7.58 ± 0.61
2 | CATGTATTTTATATTACACACTAATATTATATATAT [CACACA_site1508] | 8.09 ± 0.57
3 | ATAAAATAAAAAAGTAGTACACACTTCACGATATTT [XGTACX_site8289] | 8 ± 0.16
4 | ATAATTATAAAATAAACACACATATATATTTATATG [CACACA_site440] | 7.42 ± 0.47
5 | ATTATGTTATATATATGTACATATATAATGTTCATA [XGTACX_site6184] | 7.72 ± 0.29
6 | AATAAATAAACAAATTAACACACAGAATTTTTTTTT [CACACA_site8485] | 7.46 ± 0.6
7 | ATAATGATTATAATATGTACATAAATATATATATTA [XGTACX_site5029] | 7.7 ± 0.35
8 | AAACAATACATATATTGTACATATATTATATTATAT [XGTACX_site8136] | 7.66 ± 0.3
9 | AAAAAATCAAAACACACACACACACCCAAAAAAAAA [CACACA_site1444] | 8.42 ± 0.27
10 | CGGATCTATAAGTGTACACAATCTAGCGAAAAGTTT [CACACA_site4932] | 7.89 ± 0.6
11 | AATTTGAAATAAAGTAGTACAGTATATAAAAATATA [XGTACX_site128] | 7.79 ± 0.42
12 | TTAGAAATTCATTTTACACACAATTCAAAAGAATGT [CACACA_site2104] | 7.45 ± 0.39
13 | AAAAAGAATAAATAAATAAATAAATATATATATATA [GTGCAC_negctrl_site584] | 9.29 ± 0.74
14 | TTTATTACTATGTAAACACACATGCAATATATGTTA [CACACA_site1114] | 7.88 ± 0.59
15 | AAAAAGAAAAAAAAATGTACATAAAGTCTAATGATA [XGTACX_site4781] | 8.04 ± 0.61
16 | ATATTATATAAATACACACACACATGCATGCACATA [CACACA_site4236] | 9.31 ± 0.31
17 | AAAACAAATAAGTAAACACACATATAAAATCTATAT [CACACA_site7262] | 7.6 ± 0.64
18 | CCTATTTATTTATACACACACATATATAAATAAATA [CACACA_site7417] | 8.3 ± 0.32
19 | TTATGTAAATGCTTATGTACTTATTACAATATTTTT [XGTACX_site4057] | 7.54 ± 0.54
20 | TAAGAATTGAAAAAATGTACACAATATAAAATTGAA [XGTACX_site698] | 7.62 ± 0.45
21 | CAAATACAGAAACACACACACATATACATATATATA [CACACA_site3498] | 8.15 ± 0.73
22 | AAAATCTAGGTATTTATACACACTAAAATAATATAC [CACACA_site623] | 7.75 ± 0.61

Row | Sequence | gcPBM binding intensity (ln)
23 | ATGTTATTAAAAAAGGGTACACATCTTTTATGTTAA [XGTACX_site812] | 7.96 ± 0.19
24 | AATATGTAATAGTGTACACATATATCTGTATTTATG [CACACA_site4252] | 7.89 ± 0.55
25 | TTTAAATATAATTGGAGTACTTATAATATATATATA [XGTACX_site7247] | 8.97 ± 0.12
26 | ATTACACATATAGTAGTGCAATAACTCCAAAAAAAA | 11.4 ± 0.6
27 | TATATATATATATGGGGTACAAATGGTCAGTATTAT [XGTACX_site1223] | 9.52 ± 0.44
28 | AAAAAGGGTATTATTACACACACGTAAATATTAAGA [CACACA_site4233] | 7.73 ± 0.65
29 | GAAAATATAAAAAAAAGTACATTTTCTCTAAATATA [XGTACX_site2441] | 7.57 ± 0.35
30 | CTATATAATATGAGCACACATAAGATTTGGTGTTAT [CACACA_site744] | 8.02 ± 0.32
31 | AAAAAAAAATTATATACACACATATAAATATATATA [CACACA_site1197] | 7.75 ± 0.67
32 | ATTTATATTACAAAAAGTACACACATAAATAAATAC [XGTACX_site1827] | 8.41 ± 0.27
33 | TATATATATTATATATGTACATATATTTTTTTTTTT [XGTACX_site127] | 8.16 ± 0.44
34 | ATATATATATATATAACACACGTGTATATATATGTA [CACACA_site3644] | 9.45 ± 0.42
35 | TATTAATCATATAAATGTACGTATATATATTTTTCT [XGTACX_site1421] | 7.61 ± 0.41
36 | AAAAAAAAAAAATATATATATATATATATATATATA [CACACA_negctrl_site1606] | 9.67 ± 0.4
37 | CAATCATAGAAAAACAGTACGTGTAGCAAACATCCT [XGTACX_site4889] | 7.76 ± 0.89
38 | TATAATATATTATAACGTACAAATATATATATAAAA [XGTACX_site6581] | 7.89 ± 0.42
39 | CAACACTTAGATTTTAAGTTCACTGGTTAATATATA [CACACA_negctrl_site707] | 7.36 ± 0.33
40 | TTAAAAAAATATAGAGCATGCTAAAAATAAAAAAAT [TGCATGCA_site794] | 7.89 ± 0.86
41 | AATAAAAATAATATAGTGCATAATATAAGGAAAAAA | 11.1 ± 0.49
42 | GTTATACTCATCAACACACACATACAACGTGGTGTA [CACACA_site4789] | 7.62 ± 0.57
43 | AGGTCTATATAATAAGTGCATTTTTTTTTTTTTTTT [GTGCAC_site9664] | 9.765 ± 0.049
44 | TTTCTATATCTATTTAATTAACTTTTTATACTGATT [GTGCAC_negctrl_site415] | 7.73 ± 0.44

Reference: the supplement of paper PMC11417369
